Test results reported in PubChem BioAssay AID504832 (National Center for Advancing Translational Sciences (NCATS), 2011).
In all, about 310,000 compounds went through this assay and about 18,000 (5.8%) were called active. The shares of active, inactive and inconclusive entries below differ from those in the screen. The call rests on the fitted dose curve; in most records, active means well fitted inhibition curve with a large enough effect; inconclusive means small, poorly fitted or top-dose-only effect, or another doubt; inactive means no such curve, though single readings can be large or run the other way. No potency is given beside an inconclusive call; the fits are too rough.

Experiment: Primary qHTS for delayed death inhibitors of the malarial parasite plastid, 48 hour incubation
Settings: P. falciparum luciferase growth in erythrocytes; series mostly up to 28.7 µM
Procedure, shortened: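 Growth was read as firefly luciferase luminescence after a 48 h, 37 C, 5% CO2 exposure of compounds to reporter-bearing P. falciparum cultures (0.1% parasitemia, 2% hematocrit final) in Albumax-supplemented RPMI 1640.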
On the % scale 0 is the no-effect control and ±100 the full control effect; potency means the concentration at half of the fitted maximal effect; tags describe the fitted curve by direction and shape.

| Structure (SMILES) | Potency | activity change, negative = inhibition |
| --- | --- | --- |
| CC1=C(C(=O)Nc2ccccc2)C(c2ccncc2)C(C#N)=C(SCC(=O)NC(C)C)N1 (centres undefined) | active: 10.4 µM |  |
| CCS(=O)(=O)NCc1ccc2c(c1)cc(C)n2C | inconclusive [inhibitor, single point] |  |
| Cc1nc(C)n(CCNC(=O)c2ccco2)n1 | inconclusive [inhibitor, single point] |  |
| Cc1ccc(NC(=O)CN2C(=O)NC3(CCCCC3C)C2=O)cc1S(=O)(=O)N1CCCCC1 (centres undefined) | inconclusive [inhibitor, single point] |  |
| O=C(COC(=O)CSc1ccc2ccccc2c1Br)NC1CC1 | inconclusive [inhibitor, partial curve, poor fit] |  |
| NC(=O)CC(NC(=O)Cc1cccc2ccccc12)c1ccc(NCc2ccc(F)c(F)c2)c([N+](=O)[O-])c1 (centres undefined) | inconclusive [inhibitor, partial curve, poor fit] |  |
| C=CCn1c(=O)c(C(=O)NCc2ccc3c(c2)OCO3)c(O)c2cc(OC)c(OC)cc21 | inactive |  |
| CCN1CCc2c(sc(NC(=O)COc3ccccc3)c2C(=O)OC)C1 | active: 14.7 µM |  |
| O=C(Nc1ccc(F)cc1)C(c1ccccc1)N1CCN(S(=O)(=O)c2ccc3ccccc3c2)CC1 (centres undefined) | active: 13.1 µM |  |
| COc1ccc(C2C3=C(CC(C)(C)CC3=O)N(CCN3CCOCC3)C3=C2C(=O)CC(C)(C)C3)cc1 | inactive |  |
| CCN1CCN(S(=O)(=O)c2cc(C(=O)O)ccc2Cl)CC1 | inconclusive [inhibitor, partial curve] |  |
| CCc1nc(NCCC(C)C)c2nnn(Cc3ccccc3)c2n1 | inconclusive [inhibitor, partial curve] |  |
| CC(C(=O)O)n1ncc2ccccc2c1=O (centres undefined) | active: 2.62 µM |  |
| CSCCC(NS(=O)(=O)c1ccccc1F)C(=O)NCC(c1ccc(F)cc1)N1CCOCC1 (centres undefined) | inconclusive [inhibitor, single point] |  |
| Oc1ccccc1Oc1ncc(Br)c(Cl)n1 | inconclusive [inhibitor, single point] |  |
| CCCCCC(=O)Nc1ccc(S(=O)(=O)NC2=NCCCCC2)cc1 | inconclusive [inhibitor, partial curve, poor fit] |  |
| CCOc1ccc(C(=O)NCC(c2ccco2)N2CCOCC2)cc1 (centres undefined) | inactive |  |
| CCc1cccc(C)c1NC(=O)c1cccc(N(C)C)c1 | inconclusive [inhibitor, single point] |  |
| CCN=C1S/C(=C/c2ccc(-c3ccc(Cl)cc3C(=O)O)o2)C(=O)N1CC |  | inactive: 10.6% [at 0.00184 µM] |
| O=C(Nc1cccc(S(=O)(=O)N2CCOCC2)c1)c1ccco1 | inactive |  |
| Cc1ccc(Nc2nc(NCCCN3CCOCC3)nc(N)c2[N+](=O)[O-])cc1C | inconclusive [inhibitor, single point] |  |
| OCCCNc1ncnc2sc3c(c12)CCN(Cc1ccccc1)C3 | inconclusive [inhibitor, single point] |  |
| CCCCN(S(=O)(=O)c1ccccc1)S(=O)(=O)c1ccccc1 | inactive |  |

| Structure (SMILES) | Potency | activity change, negative = inhibition |
| --- | --- | --- |
| CCN(CC)S(=O)(=O)c1ccc(C(=O)Nc2nnc(NC(=S)Nc3ccccc3)s2)cc1 | inconclusive [inhibitor, partial curve] |  |
| Cc1ccc(N=Nc2c(C)[nH]n(-c3ccccc3)c2=O)c(C)c1 | inconclusive [inhibitor, partial curve] |  |
| CN(CC1CCCO1)S(=O)(=O)c1ccc(C(=O)Nc2nnc(-c3ccccc3)o2)cc1 (centres undefined) | inconclusive [inhibitor, single point] |  |
| O=C(CN1CCc2ccccc2C1)Nc1cccc(S(=O)(=O)N2CCOCC2)c1 | inconclusive [inhibitor, single point] |  |
| CC(C)CC(=O)Nc1ccc(C(=O)COC(=O)Cc2n[nH]c(=O)c3ccccc23)cc1 | inconclusive [inhibitor, single point] |  |
| Cc1ccc2c(CC(=O)Nc3ccc(F)c(S(=O)(=O)N4CCOCC4)c3)coc2c1 | inconclusive [inhibitor, single point] |  |
| CCOC(=O)C1CCN(C(=O)c2cc(S(=O)(=O)N3CCCCC3)ccc2C)CC1 | inconclusive [inhibitor, full curve, poor fit] |  |
| Cc1cc(S(=O)(=O)N2CCOCC2)ccc1OCC(=O)Nc1ccc(Br)cc1F | inactive |  |
| O=C(Cn1cnc2c(nnn2-c2ccccc2)c1=O)N1CCC(Cc2ccccc2)CC1 | inconclusive [inhibitor, partial curve, poor fit] |  |
| O=C(NC(=S)NNC(=O)c1ccccc1O)c1cccs1 | inconclusive [inhibitor, single point] |  |
| COCCn1c(SCC(=O)N2CCCCC2)nc2c(c1=O)SC(C)C2 (centres undefined) | inconclusive [inhibitor, partial curve, poor fit] |  |
| CC(C)(C)NC(=O)COC(=O)c1ccc(Cl)c(S(N)(=O)=O)c1 | inactive |  |
| CCc1cc2c(=O)oc(-c3ccc(F)cc3)nc2s1 | inactive |  |
| COc1ccc(N(CC(=O)Nc2ccc3c(c2)OCO3)S(=O)(=O)c2c(C)nn(C)c2C)cc1 | inconclusive [inhibitor, single point] |  |
| CCOC(=O)N/N=C/c1ccc(OCCSc2ccc(Cl)cc2)c(OC)c1 | active: 5.22 µM |  |
| Cc1nn(-c2ccccc2)c(C)c1/C=N/NC(=O)c1cc(-c2cccs2)[nH]n1 | inconclusive [inhibitor, partial curve, poor fit] |  |
| Cc1ccc(Cn2c(SCC(=O)Nc3cc(C)on3)nc3ccccc3c2=O)cc1 | inconclusive [inhibitor, partial curve] |  |
| CC(C)c1onc(C(=O)N2CCN(C(c3ccccc3)c3ccccc3)CC2)c1[N+](=O)[O-] | inconclusive [inhibitor, full curve] |  |
| C/C(=N\NC(=O)c1nc2ccccn2c1C)c1ccc2c(c1)OCO2 | inactive |  |
| COCCn1c(C)nnc1SCC(=O)NNC(=O)c1ccc(Br)cc1 | inactive |  |
| O=C1CC(c2cccs2)c2cc3c(cc2N1)OCCO3 (centres undefined) | inconclusive [inhibitor, partial curve, poor fit] |  |
| c1ccc(CSc2nnc(-c3cccs3)o2)cc1 | inactive |  |
| O=C(NNC(=S)NCc1ccco1)C(c1ccccc1)c1ccccc1 | inconclusive [inhibitor, partial curve, poor fit] |  |

| Structure (SMILES) | Potency | activity change, negative = inhibition |
| --- | --- | --- |
| CCC(NS(=O)(=O)c1c(C)[nH]c(=O)[nH]c1=O)C12CC3CC(CC(C3)C1)C2 (centres undefined) | inactive |  |
| Cc1ccc([N+](=O)[O-])cc1N=C1C(=O)Nc2ccccc21 | inactive |  |
| COC(=O)c1ccc(-n2c(C)nc(=O)c(-c3ccccc3)c2C)cc1 | inconclusive [inhibitor, partial curve] |  |
| COc1ccc(C(=O)N/N=C/C(Br)=C/c2ccccc2)cc1 | inconclusive [inhibitor, single point] |  |
| CC(=O)Oc1ccc(C(=O)Nc2cccc(C(=O)Nc3ccccc3C(=O)O)c2)cc1 | inactive |  |
| Cc1ccc(C)c(S(=O)(=O)NCc2ccncc2)c1 | inconclusive [inhibitor, full curve, poor fit] |  |
| O=C(CCNS(=O)(=O)c1ccc2[nH]c(=O)oc2c1)NCc1ccccc1 | inactive |  |
| CCC(CC)c1nnc(NC(=O)c2cccc(S(=O)(=O)N3CCc4ccccc43)c2)s1 | active: 14.7 µM |  |
| CC(C)COP(=O)(OCC(C)C)C(Nc1ccccc1)c1ccc(F)cc1 (centres undefined) | inconclusive [inhibitor, single point] |  |
| Cc1ccc(-c2nnc(SCC(=O)Nc3ccc4c(c3)OCCO4)n2N)cc1 | inactive |  |
| CC(NC(=O)CCn1ccc2cc(S(=O)(=O)N3CCCC3)ccc21)c1ccccc1 (centres undefined) | inconclusive [inhibitor, single point] |  |
| CC(C)CNC(=O)COc1ccc(Sc2ccc(OCC(=O)NCC(C)C)cc2)cc1 | inconclusive [inhibitor, partial curve] |  |
| CCCNC(=O)COC(=O)c1cc(-c2ccc(OC)cc2)nc2ccccc12 | inactive |  |
| Cc1cccc(C(=O)N/N=C/c2ccc(OCC(=O)N3CCCCC3)cc2)c1 | inconclusive [inhibitor, partial curve, poor fit] |  |
| CCC(C)NC(=O)c1cc2c(=O)[nH]c3ccc(C)cc3c2s1 (centres undefined) | inconclusive [inhibitor, partial curve] |  |
| CC(C)(C)NC(=O)C(c1cccs1)N(CC1CCCO1)C(=O)c1ccc(-c2ccccc2)[nH]1 (centres undefined) | active: 13.1 µM |  |
| Cc1nnc(SCC(=O)Nc2cc(-c3cc(C)c(C)cc3C)nn2-c2ccccc2)s1 | inconclusive [inhibitor, single point] |  |
| O=C(Nc1cc(Oc2ccc(Cl)cc2)cc([N+](=O)[O-])c1)c1ccco1 | inconclusive [inhibitor, single point] |  |
| Cc1nnc(SCc2ccc(CSc3nnc(C)c(=O)[nH]3)cc2)[nH]c1=O | inactive |  |
| Cc1cc(C)c(NC(=O)Cn2nc(-c3ccccc3)nc2-c2ccccc2)c(C)c1 | inactive |  |
| CC(C)c1ccc(/C=C(\c2nc3ccccc3[nH]2)S(=O)(=O)c2ccccc2)cc1 | active: 5.86 µM |  |
| Cc1cccc(NC(=S)Nc2cccc(C(F)(F)F)c2)n1 | inconclusive [inhibitor, single point] |  |
| COc1ccccc1/C=C/CN1CCCC(CCC(=O)NCc2ccccc2F)C1 (centres undefined) | inconclusive [inhibitor, single point] |  |
